From article doi:10.1101/2025.06.02.656870, “Replaying germinal center evolution on a quantified affinity landscape” (bioRxiv, 2025)

What was measured:
Assay in all cases: flow cytometry on cells; deep mutational scanning: scFv library on the yeast surface, biotinylated IgY (CGG) at 10-fold steps from 10^-6 to 10^-13 M, PE-streptavidin, FACS into four bins and sequencing; mean of two independent experiments
Conditions in all cases: one partner purified
clone 2.1 scFv N108LR = molecular target: T1, clone 2.1 scFv N108LR
T1 construct: as the VH of m4; as the Vκ of m4, with N108R; source: yeast-surface display (pETcon vector), site-saturation mutagenesis library, on yeast cells
T1 sequence (heavy, as listed by the source, chain 1 of 2): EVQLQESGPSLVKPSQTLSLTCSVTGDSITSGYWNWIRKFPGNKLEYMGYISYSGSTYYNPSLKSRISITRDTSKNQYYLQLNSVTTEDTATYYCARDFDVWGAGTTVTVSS
T1 sequence (light, as listed by the source, chain 2 of 2): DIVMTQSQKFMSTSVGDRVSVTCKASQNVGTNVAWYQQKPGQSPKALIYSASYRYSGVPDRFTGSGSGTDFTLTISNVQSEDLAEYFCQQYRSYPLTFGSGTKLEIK

clone 2.1 scFv Y38HE = molecular target: T2, clone 2.1 scFv Y38HE
T2 construct: as the VH of m4, with Y38E; as the Vκ of m4; source: yeast-surface display (pETcon vector), site-saturation mutagenesis library, on yeast cells
T2 sequence (heavy, as listed by the source, chain 1 of 2): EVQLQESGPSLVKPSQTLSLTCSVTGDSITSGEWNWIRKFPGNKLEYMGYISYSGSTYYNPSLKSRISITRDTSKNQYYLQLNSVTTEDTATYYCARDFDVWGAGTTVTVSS
T2 sequence (light, as listed by the source, chain 2 of 2): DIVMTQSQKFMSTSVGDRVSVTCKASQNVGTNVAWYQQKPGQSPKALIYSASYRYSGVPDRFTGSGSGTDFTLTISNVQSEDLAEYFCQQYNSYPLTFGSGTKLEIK

clone 2.1 scFv Y42LN = molecular target: T3, clone 2.1 scFv Y42LN
T3 construct: as the VH of m4; as the Vκ of m4, with Y42N; source: yeast-surface display (pETcon vector), site-saturation mutagenesis library, on yeast cells
T3 sequence (light, as listed by the source, chain 2 of 2): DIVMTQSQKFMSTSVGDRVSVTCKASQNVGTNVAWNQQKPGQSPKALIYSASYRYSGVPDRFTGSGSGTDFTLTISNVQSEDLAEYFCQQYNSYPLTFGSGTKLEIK

Δaffinity (−Δlog10(KD) against the naïve 2.1 scFv) (clone 2.1 scFv N108LR): 0.91 log10
Δaffinity (−Δlog10(KD) against the naïve 2.1 scFv) (clone 2.1 scFv Y38HE): -3 log10
Δaffinity (−Δlog10(KD) against the naïve 2.1 scFv) (clone 2.1 scFv Y42LN): 0.26 log10
B1: chicken IgY (natural protein)
chain: AVTLDESGGGLQTPGGTLSLVCEGSGFTFSSFHMQWVRQALGKGLEWVAGISGSGKYTSYGAAVKGRATISRDNGQSTVRLQLNNLKAEDTGTYYCTRSSCGGCCDWSPYTTGCGAYSTGTIDAWGHGTEVIVSSASPTSPPRLYPLSACCSDSAVPPAVGCLLSPSSAGGISWEGSGGTAVAGRVSGTPVKLSFVRLSPGEKRKSFVCSAAPGGALLKKEVQVCRVDPVPPVAPEVQVLHPSSCTPSQSESVELLCLVTGFSPASAEVEWLVDGVGGLLVASQSPAVRSGSTYSLSSRVNVSGTDWREGKSYSCRVRHPATNTVVEDHVKGC[sequence of about 250 residues omitted]
modifications: biotin (only the form used for yeast display, Exalpha IgY-B)
